The densities may have been worked out from excess volumes.
Experiment: xn = mol fraction of the nth substance listed
Settings: 101.3 kPa

CCCCCCCCn1cc[n+](C)c1.F[B-](F)(F)F + CNc1ccccc1
mass density [kg/m3]
Settings | x1 = 0.1032 | x1 = 0.2037 | x1 = 0.285 | x1 = 0.383 | x1 = 0.4978 | x1 = 0.5939 | x1 = 0.7016 | x1 = 0.7942 | x1 = 0.9002 | x1 = 1
293.15 K | 1018.8 | 1039.8 | – | 1063.9 | 1074 | 1080.6 | – | 1092.1 | 1097.6 | 1108.5
298.15 K | – | 1036.2 | 1048.8 | 1060.4 | 1070.5 | 1077.3 | 1084 | 1088.8 | 1094.3 | 1105
303.15 K | 1011.2 | 1032.5 | 1045.2 | 1056.9 | 1067.1 | 1073.8 | 1080.7 | – | 1091 | 1101.7
308.15 K | 1007.4 | 1028.9 | 1041.6 | 1053.4 | – | – | – | 1082.3 | 1087.8 | –
313.15 K | 1003.7 | – | 1038 | 1049.9 | 1060.3 | – | 1074 | 1079 | 1084.4 | 1095
318.15 K | 1000.1 | 1021.3 | 1034.3 | – | 1057 | 1063.9 | 1070.6 | 1075.8 | 1081.1 | 1091.5
323.15 K | 996.4 | – | 1030.7 | 1042.7 | 1053.3 | 1060.7 | – | 1072.6 | 1077.8 | 1088

CCCCCC[n+]1ccn(C)c1.F[B-](F)(F)F + CNc1ccccc1
x1 = 1
Settings | mass density [kg/m3]
298.15 K | 1145.1
303.15 K | 1141.7
308.15 K | 1137.8
313.15 K | 1134.9
318.15 K | 1131.7
323.15 K | 1127.5

CNc1ccccc1 + CCCC[n+]1ccn(C)c1.F[B-](F)(F)F
mass density [kg/m3]
Settings | x2 = 0 | x2 = 0.0973 | x2 = 0.184 | x2 = 0.2982 | x2 = 0.3909 | x2 = 0.5025 | x2 = 0.5928 | x2 = 0.7005 | x2 = 0.7963 | x2 = 0.901
293.15 K | 988.4 | 1026.6 | 1056.5 | – | – | 1131.5 | – | 1163.6 | – | 1191.4
298.15 K | – | – | 1053.8 | 1085.7 | 1107 | 1128.9 | 1144.2 | 1161 | 1174.9 | 1188.8
303.15 K | 980.3 | 1020.1 | 1050.4 | 1082.5 | 1103.9 | – | – | – | – | 1185.6
308.15 K | 976.2 | – | 1047.1 | 1079.1 | – | 1122.6 | – | 1154.6 | – | 1182
313.15 K | 972.2 | 1013.5 | 1043.8 | 1075.6 | 1097 | 1118.9 | 1134.7 | 1151.2 | – | 1178.2
318.15 K | – | 1010.2 | 1040.8 | 1072.5 | 1094 | – | 1131.8 | 1148.2 | 1161.9 | 1175.3
323.15 K | 964 | 1007.3 | 1037.7 | 1069.4 | – | 1113 | 1129 | 1145.6 | 1159.2 | 1172.7

CNc1ccccc1 + CCCCCCCCn1cc[n+](C)c1.F[B-](F)(F)F
x2 = 0
Settings | mass density [kg/m3]
298.15 K | 984.4
303.15 K | 980.3
308.15 K | 976.2
313.15 K | 972.2
318.15 K | 968.1
323.15 K | 964

CCCC[n+]1ccn(C)c1.F[B-](F)(F)F + CNc1ccccc1
x1 = 1
Settings | mass density [kg/m3]
303.15 K | 1197.5
313.15 K | 1189.5
318.15 K | 1186.2
323.15 K | 1182.9

CNc1ccccc1 + CCCCCC[n+]1ccn(C)c1.F[B-](F)(F)F
mass density [kg/m3]
Settings | x2 = 0 | x2 = 0.1058 | x2 = 0.2201 | x2 = 0.3079 | x2 = 0.395 | x2 = 0.501 | x2 = 0.6034 | x2 = 0.7024 | x2 = 0.804 | x2 = 0.8984
293.15 K | 988.4 | – | 1053.7 | 1072.1 | 1086.9 | 1101.2 | – | 1122.4 | 1131.2 | 1138.7
298.15 K | 984.4 | 1019.5 | 1050.2 | 1068.7 | – | 1098 | 1109.6 | 1119.3 | 1127.9 | 1135.4
303.15 K | 980.3 | – | 1046.6 | 1065.1 | 1080 | 1094.5 | – | 1115.9 | 1124.6 | 1132.2
308.15 K | – | 1011.8 | 1042.8 | – | – | – | 1103 | 1112.6 | 1121.3 | 1128.9
313.15 K | 972.2 | 1008.1 | 1039 | 1057.8 | 1073.1 | 1087.7 | 1099.8 | 1109.2 | 1118.1 | –
318.15 K | 968.1 | – | 1035.3 | 1054.2 | 1069.5 | – | 1096.4 | 1105.8 | 1114.8 | 1122.4
323.15 K | – | 1000.5 | 1031.5 | 1050.6 | 1066 | 1080.9 | 1092.8 | 1102.5 | 1111.4 | 1119
